# Measured values published in PubChem BioAssay AID1631 (National Center for Advancing Translational Sciences (NCATS), 2009).
# About 890 (0.34%) of roughly 260,000 compounds were called active. Inconclusive results, whose numbers are uncertain, are shown with a selection of clear calls. Calls come from the whole dose curve; as a rule, active = well fitted activation curve with a large enough effect; inconclusive = small, poorly fitted or top-dose-only effect; inactive = no such curve, though single readings can be large or run the other way. Potencies of inconclusive entries are left out as doubtful fits.
# Target: Pyruvate kinase PKM (Homo sapiens) (UniProt P14618)
# Assay: qHTS Assay for Activators of Human Muscle isoform 2 Pyruvate Kinase; note: nearly all actives have a fitted effect of over 55% in size
# Settings: purified PKM2, Kinase-Glo ATP luminescence; Potency: activation; activation: at 57.5 µM (top of the series), 0% is enzyme alone, no compound
# How it was run: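 hPK-M2, >95% pure; 0.1 mM ADP / 0.5 mM PEP final; imidazole pH7.2 buffer w/ 7 mM MgCl2, 50 mM KCl; 1 h RT; Kinase-Glo lum. Intermediate enzyme activity for dual inhibitor/activator qHTS.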
# Potency is the fitted concentration of half-maximal effect; tags give direction and shape of the fitted curve.
# Chain of UniProt P14618 (P14618 whole entry, looked up, canonical isoform): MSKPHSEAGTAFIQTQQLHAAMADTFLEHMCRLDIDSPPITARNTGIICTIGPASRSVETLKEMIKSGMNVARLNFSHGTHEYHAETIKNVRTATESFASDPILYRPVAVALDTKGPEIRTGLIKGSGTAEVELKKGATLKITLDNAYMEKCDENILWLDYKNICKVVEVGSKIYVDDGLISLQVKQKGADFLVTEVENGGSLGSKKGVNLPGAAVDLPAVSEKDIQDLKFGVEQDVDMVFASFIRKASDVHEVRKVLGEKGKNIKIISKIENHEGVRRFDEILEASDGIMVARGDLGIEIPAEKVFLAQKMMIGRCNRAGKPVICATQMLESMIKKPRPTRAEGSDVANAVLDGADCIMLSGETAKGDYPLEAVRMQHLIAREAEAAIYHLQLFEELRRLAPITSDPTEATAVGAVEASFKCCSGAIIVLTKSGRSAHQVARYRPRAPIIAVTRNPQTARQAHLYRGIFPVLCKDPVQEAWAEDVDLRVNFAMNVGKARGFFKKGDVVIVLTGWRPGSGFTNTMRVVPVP
row,Compound,Potency
1,CCOC(=O)c1cnc(SC)nc1Oc1cccc(NS(=O)(=O)c2ccc(Cl)cc2)c1,inactive
2,COc1ccc(C(=O)/C=C/C(=O)N(CC(=O)NC2CCCCC2)Cc2cccs2)c(O)c1,active: 12.6 µM
3,CCn1c(CCc2ccccc2)nc2ccccc21,"inconclusive [rising, single point]"
4,C[C@H](NC(N)=O)C(=O)N1CCN(S(=O)(=O)c2ccc3ccccc3c2)CC1,"inconclusive [rising, partial curve]"
5,N=c1c2c(ncn1Cc1ccco1)Oc1cc(O)ccc1C2c1ccccc1 (stereo unspecified),"inconclusive [rising, partial curve]"
6,Cc1csc(NC(=O)c2ccc(C)c([N+](=O)[O-])c2)n1,inactive
7,COC(=O)C1=C(C)N(Cc2ccccc2)C(=NCc2cccc(C(F)(F)F)c2)N[C@H]1c1cccc(F)c1,"inconclusive [rising, single point]"
8,O=C(NC(=S)Nc1ccc(S(=O)(=O)NC2CCCCC2)cc1)c1cccs1,inactive
9,Cc1cccc(NS(=O)(=O)c2ccc(NC(=O)CN(c3cc([N+](=O)[O-])ccc3C)S(C)(=O)=O)cc2)c1,"inconclusive [rising, partial curve]"
10,O=C(Cc1cccs1)NCc1cccc(CNC(=O)Cc2cccs2)c1,"inconclusive [rising, single point]"
11,COc1ccc(OCc2cc(=O)[nH]c3ccccc23)cc1,inactive
12,COc1ccc(CCNC(=O)CCC(=O)n2ncc3ccc(Cl)cc32)cc1OC,inactive
13,O=C1CCN(Cc2nc(-c3ccc(Cl)cc3)no2)CCN1,"inconclusive [rising, single point]"
14,CCCNc1ccc(C(=O)OCC)cc1[N+](=O)[O-],"inconclusive [rising, partial curve, poor fit]"
15,Cc1cc(C)c2cc(CN(CCN(C)C)C(=O)Nc3ccccc3Cl)c(=O)[nH]c2c1,"inconclusive [rising, single point]"
16,Nc1cnn(Cc2ccccc2F)c1,"inconclusive [rising, partial curve]"
17,CCCCN(C(=O)Cn1nnc2ccccc21)C(C(=O)NCc1ccco1)c1ccncc1 (stereo unspecified),"inconclusive [rising, single point]"
18,Cc1cccc(-n2nnnc2SCC(=O)Nc2cccc(S(N)(=O)=O)c2)c1,active: 5.01 µM
19,COc1ccc(C(CNC(=O)c2ccco2)N2CCCCC2)cc1 (stereo unspecified),"inconclusive [rising, single point]"
20,C=CCn1c(C)cc(/C([O-])=C(/C(=S)Nc2ccc(OC(F)F)cc2)[n+]2ccc(N(C)C)cc2)c1C,"inconclusive [rising, single point]"
21,COC(=O)COc1ccc(C2Nc3c(Cl)ccc(C(=O)O)c3C3C=CCC32)cc1 (stereo unspecified),"inconclusive [rising, single point]"
22,CN1C(=O)c2cccc3c(S(=O)(=O)Nc4ccccn4)ccc1c23,"inconclusive [rising, partial curve]"
23,Cc1ccc2c(c1)c1ccc3c(c1n2C)C(=O)C=CC3=O,"inconclusive [rising, full curve]"
24,CCOc1ccc(-c2nnc(SCc3nnc(-c4ccccc4)o3)n2-c2ccccc2F)cc1,"inconclusive [rising, single point]"

row,Compound,Potency
1,O=C(OCCOc1ccccc1Cl)c1ccc(-n2cnnn2)cc1,"inconclusive [rising, single point]"
2,CNC(=O)c1cc2ncc(C(F)(F)F)cc2s1,"inconclusive [rising, single point]"
3,Cc1cc2c(cc1S(=O)(=O)Nc1cccc(F)c1)n(C)c(=O)c(=O)n2C,active: 2 µM
4,COc1ccc(CN2C(=O)/C(=C/c3ccc(-c4ccc(Cl)c(C(=O)O)c4)o3)SC2=S)cc1,"inconclusive [rising, partial curve]"
5,C=CCn1c(SCC(=O)Nc2sccc2C(N)=O)nc2sc(C)c(C)c2c1=O,inactive
6,CCOc1ccc(S(=O)(=O)Nc2nc3cc(OC)ccc3s2)cc1,"inconclusive [rising, partial curve]"
7,O=C(O)c1ccc(N/N=C/c2ccc(OC(=O)c3cccc(Cl)c3)cc2)cc1,"inconclusive [rising, partial curve]"
8,CCC(C)OC(=O)c1[nH]c2c(c1C)C(=O)CC(c1ccc(N(C)C)cc1)C2 (stereo unspecified),"inconclusive [rising, partial curve]"
9,COc1cccc(NC(=O)CSc2nnc3cc(C)nc(N)n23)c1,active: 1.78 µM
10,COc1ccc2[nH]c(=O)c(CN(C)C(=O)COc3ccccc3)cc2c1,inactive
11,O=C1NN(c2ccccc2)C(=O)/C1=C\c1ccccc1OCC(=O)N1CCOCC1,active: 10 µM
12,CC(C)c1ccc(-c2cc(C(=O)N3N=C(C(F)F)CC3(O)C(F)F)c3ccccc3n2)cc1 (stereo unspecified),inactive
13,Nc1nc(SCC(=O)N2CCCC2)[nH]c(=O)c1-c1ccccc1,inactive
14,O=C(c1ccc(F)cc1)N1CCC(c2ccccc2)C1 (stereo unspecified),inactive
15,CC(C)(C)OC(=O)N1CCC(CNC(=O)c2ccccc2)CC1,"inconclusive [rising, single point]"
16,N#CC1=C(SCC(=O)c2ccccc2)NC2=C(C(=O)CCC2)C1c1ccco1 (stereo unspecified),"inconclusive [rising, single point]"
17,Cc1cccc(N2CCN(C(=O)c3c(Cl)cnn3C)CC2)c1C,"inconclusive [rising, single point]"
18,CC/C(=N/Nc1ccccc1C)c1cnnc(SC)n1,"inconclusive [rising, partial curve, poor fit]"
19,COCCCN1C(=O)c2ccc(C(=O)OCC(=O)NCCc3ccccc3)cc2C1=O,"inconclusive [rising, single point]"
20,Cc1ccc(CN(C)C(=O)c2ccccc2Oc2ccccc2)o1,active: 28.2 µM
21,Cc1cc2[nH]c(=O)c(=O)[nH]c2cc1S(=O)(=O)N(C)C1CCCCC1,"inconclusive [rising, single point]"
22,COc1ccc(CNC(=O)c2cnc3cc(C)ccn3c2=O)cc1,"inconclusive [rising, single point]"
23,CC(=O)Nc1ccc(-c2csc(NCc3ccccc3)n2)cc1,"inconclusive [rising, single point]"
24,CCOC(=O)N1CCN(C(=O)COc2cccc3c2CCN(Cc2ccccc2C)C3=O)CC1,"inconclusive [rising, full curve]"

row,Compound,Potency
1,COc1ccc(S(=O)(=O)/N=C2/C=CC(=O)C(C)=C2C)cc1,"inconclusive [rising, single point]"
2,C=CCn1c(SCC(N)=O)nc2scc(-c3ccc(C)o3)c2c1=O,active: 31.6 µM
3,N#CCCn1cc(C(N)=O)c(-c2ccc3ccccc3c2)n1,inactive
4,COc1ccc(NC(=O)C(CCS(C)(=O)=O)NC(C)=O)cc1 (stereo unspecified),"inconclusive [rising, single point]"
5,CCOC(=O)C1CCN(S(=O)(=O)Cc2ccccc2)CC1,"inconclusive [rising, single point]"
6,C/C=C/C=C/C(=O)Nc1cccc(C2=NOC3(C2)C[C@H](C(N)=O)N(C(=O)CC(c2ccccc2)c2ccccc2)C3)c1 (stereo partly specified),"inconclusive [rising, partial curve]"
7,O=C(NCCOC(=O)c1ccc(C(=O)OCCNC(=O)c2cccnc2)s1)c1cccnc1,active: 15.8 µM
8,c1nc(NC2CCCCCC2)c2[nH]cnc2n1,"inconclusive [rising, single point]"
9,CCN1C(=O)c2cccc3c(S(=O)(=O)Nc4ccccn4)ccc1c23,"inconclusive [rising, partial curve]"
10,O=C(c1ccc(NS(=O)(=O)c2cccs2)cc1)N1CCN(c2ccccc2Cl)CC1,active: 6.31 µM
11,Cc1ccc(/C=N/N(Cc2ccccc2)c2ccccc2)o1,"inconclusive [rising, single point]"
12,Cc1ccc(S(=O)(=O)N2CCN(c3cnn(C)c(=O)c3Cl)CC2)cc1,active: 20 µM
13,O=C1C(Cl)=C(N2CCOCC2)C(=O)N1c1cccc(Cl)c1,active: 14.1 µM
14,CCOc1cc(/C=C(\C#N)C(N)=O)ccc1OS(=O)(=O)c1ccccc1,active: 14.1 µM
15,O=C(CSc1nnnn1C1CCCCC1)Nc1ccccc1N1CCOCC1,"inconclusive [rising, partial curve, poor fit]"
16,CN(C)S(=O)(=O)N(CCN1CCOCC1)Cc1ccccc1F,"inconclusive [rising, single point]"
17,CCOC(=O)C1CCN(C(=O)c2ccc3c(c2)NC(=O)/C(=C\c2cccc(C)c2)S3)CC1,inactive
18,CCCCn1c(=O)[nH]c(=O)c2c1nc(-c1ccc(-c3ccccc3Br)o1)n2CC,active: 15.8 µM
19,Cc1ccc(-c2nc3ncccn3c2Nc2ccccc2C)o1,active: 11.2 µM
20,Cn1c(C(=O)NCCC2=CCCCC2)cc2c(=O)n3ccccc3nc21,inactive
21,O=C(c1ccc2c(=O)n(Cc3ccco3)c(=S)[nH]c2c1)N1CCN(c2ccccc2)CC1,active: 12.6 µM
22,O=[N+]([O-])c1cc(Cl)c(O)c2ncccc12,"inconclusive [rising, single point]"
23,Cc1ccc(NS(=O)(=O)c2ccc3c(c2)NC(=O)CO3)cc1Cl,"inconclusive [rising, partial curve]"
